Some of the results follow. Sequences were assembled here from the parent chain. Inactive controls read about 0.05.
B1: TEV protease; numbered along this chain (parent)
chain: MGESLFKGPRDYNPISSSICHLTNESDGHTTSLYGIGFGPFIITNKHLFRRNNGTLVVQSLHGVFKVKDTTTLQQHLVDGRDMIIIRMPKDFPPFPQKLKFREPQREERICLVTTNFQTKSMSSMVSDTSCTFPSGDGIFWKHWIQTKDGQCGSPLVSTRDGFIVGIHSASNFTNTNNYFTSVPKNFMELLTNQEAQQWVSGWRLNADSVLWGGHKVFMVKPEEPFQPVKEATQL

Variants of: B1
Experiment: raw area under fraction-flipped curve 0-4 h after induction (AUC4h, not background-subtracted), DNA-recorder readout of cleavage of the substrate (dimensionless); higher = more cleavage of the substrate by the protease variant
Settings: temperature: 34 °C; time window: 0-4 h after rhamnose induction
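Further: Bxb1 expression induced with 0.2% (w/v) L-rhamnose at OD600 near 0.5, cultures sampled hourly, flipped fraction per protease–substrate barcode pair counted by paired-end Illumina sequencing.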

Variant | area with substrate ENLDFQS | area with substrate ENLEFQS | area with substrate ENLHFQS | area with substrate ENLIFQS | area with substrate ENLPFQS | area with substrate ENLVFQS | area with substrate ENLWFQS | area with substrate ENLFFQS | area with substrate ENLKFQS | area with substrate ENLMFQS
MGESLFKGPRDYNPISSSICHLTNESDGHTTSLYGIGFGPFIITNKHLFRRNNGTLVVQSLHGVFKVKDTTTLQQHLVDGRDMIIIRMPKDFPPFPQKLKFREPQREERICLVTTNFQTKSMSSMVSDTSCTFPSGDGIFWKHWIQTKDGQCGSPLVSTRDGFIVGIHSASNFTNTNNYFTSVPKNFMELLTNQEAQQWVSGWRCNADSVLWGGHKVFMVKPEEPFQPVKEATQL [L205C] | 0.0665 | 0.0691 | 0.0622 | 0.0672 | 0.0718 | 0.0971 | 0.0638 | – | – | –
MGESLFKGPRDYNPISSSICHLTNESDGHTTSLYGIGFGPFIITNKHLFRRNNGTLVVQSLHGVFKVKDTTTLQQHLVDGRDMIIIRMPKDFPPFPQKLKFREPQREERICLVTTNFQTKSMSSMVSDTSCTFPSGDGIFWKHWIQTKDGQCGSPLVSTRDGFIVGIHSASNFTNTNNYFTSVPKNFMELLTNQEAQQWVSGWRQNADSVLWGGHKVFMVKPEEPFQPVKEATQL [L205Q] | 0.0676 | – | – | – | – | – | – | – | – | –
MGESLFKGPRDYNPISSSICHLTNESDGHTTSLYGIGFGPFIITNKHLFRRNNGTLVVQSLHGVFKVKDTTTLQQHLVDGRDMIIIRMPKDFPPFPQKLKFREPQREERICLVTTNFQTKSMSSMVSDTSCTFPSGDGIFWKHWIQTKDGQCGSPLVSTRDGFIVGIHSASNFTNTNNYFTSVPKNFMELLTNQEAQQWVSGWRLMADSVLWGGHKVFMVKPEEPFQPVKEATQL [N206M] | 0.0716 | 0.0708 | 0.0906 | – | 0.0659 | – | – | 0.084 | 0.0782 | 0.0411
MGESLFKGPRDYNPISSSICHLTNESDGHTTSLYGIGFGPFIITNKHLFRRNNGTLVVQSLHGVFKVKDTTTLQQHLVDGRDMIIIRMPKDFPPFPQKLKFREPQREERICLVTTNFQTKSMSSMVSDTSCTFPSGDGIFWKHWIQTKDGQCGSPLVSTRDGFIVGIHSASNFTNTNNYFTSVPKNFMELLTNQEAQQWVSGWRLNADQVLWGGHKVFMVKPEEPFQPVKEATQL [S209Q] | 0.0492 | 0.0635 | – | 0.0964 | 0.0555 | – | 0.0769 | – | – | –
MGESLFKGPRDYNPISSSICHLTNESDGHTTSLYGIGFGPFIITNKHLFRRNNGTLVVQSLHGVFKVKDTTTLQQHLVDGRDMIIIRMPKDFPPFPQKLKFREPQREERICLVTTNFQTKSMSSMVSDTSCTFPSGDGIFWKHWIQTKDGQCGSPLVSTRDGFIVGIHSASNFTNTNNYFTSVPKNFMELLTNQEAQQWVSGWRLNADSVLWPGHKVFMVKPEEPFQPVKEATQL [G213P] | 0.0696 | – | 0.0383 | – | 0.0567 | – | – | – | – | –
MGESLFKGPRDYNPISSSICHLTNESDGHTTSLYGIGFGPFIITNKHLFRRNNGTLVVQSLHGVFKVKDTTTLQQHLVDGRDMIIIRMPKDFPPFPQKLKFREPQREERICLVTTNFQTKSMSSMVSDTSCTFPSGDGIFWKHWIQTKDGQCGSPLVSTRDGFIVGIHSASNFTNTNNYFTSVPKNFMELLTNQEAQQWVSGWRLNADSVLWGLHKVFMVKPEEPFQPVKEATQL [G214L] | 0.0042 | – | 0.0645 | – | – | 0.057 | – | 0.0622 | – | –
MGESLFKGPRDYNPISSSICHLTNESDGHTTSLYGIGFGPFIITNKHLFRRNNGTLVVQSLHGVFKVKDTTTLQQHLVDGRDMIIIRMPKDFPPFPQKLKFREPQREERICLVTTNFQTKSMSSMVSDTSCTFPSGDGIFWKHWIQTKDGQCGSPLVSTRDGFIVGIHSASNFTNTNNYFTSVPKNFMELLTNQEAQQWVSGWRLNADSVLWGGTKVFMVKPEEPFQPVKEATQL [H215T] | 0.0528 | – | 0.0558 | – | 0.058 | – | – | – | 0.0629 | 0.0653
MGESLFKGPRDYNPISSSICHLTNESDGHTTSLYGIGFGPFIITNKHLFRRNNGTLVVQSLHGVFKVKDTTTLQQHLVDGRDMIIIRMPKDFPPFPQKLKFREPQREERICLVTTNFQTKSMSSMVSDTSCTFPSGDGIFWKHWIQTKDGQCGSPLVSTRDGFIVGIHSASNFTNTNNYFTSVPKNFMELLTNQEAQQWVSGWRLNADSVLWGGHKVQMVKPEEPFQPVKEATQL [F218Q] | 0.0626 | – | 0.0604 | – | 0.0798 | – | 0.06 | 0.0816 | 0.071 | –
MGESLFKGPRDYNPISSSICHLTNESDGHTTSLYGIGFGPFIITNKHLFRRNNGTLVVQSLHGVFKVKDTTTLQQHLVDGRDMIIIRMPKDFPPFPQKLKFREPQREERICLVTTNFQTKSMSSMVSDTSCTFPSGDGIFWKHWIQTKDGQCGSPLVSTRDGFIVGIHSASNFTNTNNYFTSVPKNFMELLTNQEAQQWVSGWRLNADSVLWGGHKVFMVKPPEPFQPVKEATQL [E223P] | 0.065 | 0.0699 | 0.0699 | 0.0644 | 0.0672 | – | – | 0.0698 | 0.0769 | –
MGESLFKGPRDYNPISSSICHLTNESDGHTTSLYGIGFGPFIITNKHLFRRNNGTLVVQSLHGVFKVKDTTTLQQHLVDGRDMIIIRMPKDFPPFPQKLKFREPQREERICLVTTNFQTKSMSSMVSDTSCTFPSGDGIFWKHWIQTKDGQCGSPLVSTRDGFIVGIHSASNFTNTNNYFTSVPKNFMELLTNQEAQQWVSGWRLNADSVLWGGHKVFMVKPEEPFHPVKEATQL [Q227H] | 0.0177 | 0.0496 | – | – | 0.0599 | – | – | 0.0788 | 0.0974 | –
MGESLFKGPRDYNPISSSICHLTNESDGHTTSLYGIGFGPFIITNKHLFRRNNGTLVVQSLHGVFKVKDTTTLQQHLVDGRDMIIIRMPKDFPPFPQKLKFREPQREERICLVTTNFQTKSMSSMVSDTSCTFPSGDGIFWKHWIQTKDGQCGSPLVSTRDGFIVGIHSASNFTNTNNYFTSVPKNFMELLTNQEAQQWVSGWRLNADSVLWGGHKVFMVKPEEPFQIVKEATQL [P228I] | 0.0547 | – | 0.0421 | – | – | 0.0914 | – | 0.0674 | – | –

Same assay, conditions: temperature: 34 °C; time window: 0-4 h after rhamnose induction

Variant | area with substrate ENLRFQS | area with substrate ENLSFQS | area with substrate ENLLFQS | area with substrate ENLNFQS | area with substrate ENLQFQS | area with substrate ENLGFQS
MGESLFKGPRDYNPISSSICHLTNESDGHTTSLYGIGFGPFIITNKHLFRRNNGTLVVQSLHGVFKVKDTTTLQQHLVDGRDMIIIRMPKDFPPFPQKLKFREPQREERICLVTTNFQTKSMSSMVSDTSCTFPSGDGIFWKHWIQTKDGQCGSPLVSTRDGFIVGIHSASNFTNTNNYFTSVPKNFMELLTNQEAQQWVSGWRLMADSVLWGGHKVFMVKPEEPFQPVKEATQL [N206M] | 0.0504 | 0.0598 | – | – | – | –
MGESLFKGPRDYNPISSSICHLTNESDGHTTSLYGIGFGPFIITNKHLFRRNNGTLVVQSLHGVFKVKDTTTLQQHLVDGRDMIIIRMPKDFPPFPQKLKFREPQREERICLVTTNFQTKSMSSMVSDTSCTFPSGDGIFWKHWIQTKDGQCGSPLVSTRDGFIVGIHSASNFTNTNNYFTSVPKNFMELLTNQEAQQWVSGWRLNADQVLWGGHKVFMVKPEEPFQPVKEATQL [S209Q] | – | – | 0.0657 | 0.0739 | 0.0661 | –
MGESLFKGPRDYNPISSSICHLTNESDGHTTSLYGIGFGPFIITNKHLFRRNNGTLVVQSLHGVFKVKDTTTLQQHLVDGRDMIIIRMPKDFPPFPQKLKFREPQREERICLVTTNFQTKSMSSMVSDTSCTFPSGDGIFWKHWIQTKDGQCGSPLVSTRDGFIVGIHSASNFTNTNNYFTSVPKNFMELLTNQEAQQWVSGWRLNADSVLWPGHKVFMVKPEEPFQPVKEATQL [G213P] | – | – | 0.0626 | 0.0665 | – | –
MGESLFKGPRDYNPISSSICHLTNESDGHTTSLYGIGFGPFIITNKHLFRRNNGTLVVQSLHGVFKVKDTTTLQQHLVDGRDMIIIRMPKDFPPFPQKLKFREPQREERICLVTTNFQTKSMSSMVSDTSCTFPSGDGIFWKHWIQTKDGQCGSPLVSTRDGFIVGIHSASNFTNTNNYFTSVPKNFMELLTNQEAQQWVSGWRLNADSVLWGLHKVFMVKPEEPFQPVKEATQL [G214L] | – | – | 0.0603 | – | 0.0795 | –
MGESLFKGPRDYNPISSSICHLTNESDGHTTSLYGIGFGPFIITNKHLFRRNNGTLVVQSLHGVFKVKDTTTLQQHLVDGRDMIIIRMPKDFPPFPQKLKFREPQREERICLVTTNFQTKSMSSMVSDTSCTFPSGDGIFWKHWIQTKDGQCGSPLVSTRDGFIVGIHSASNFTNTNNYFTSVPKNFMELLTNQEAQQWVSGWRLNADSVLWGGTKVFMVKPEEPFQPVKEATQL [H215T] | – | – | 0.0636 | – | 0.0651 | 0.0556
MGESLFKGPRDYNPISSSICHLTNESDGHTTSLYGIGFGPFIITNKHLFRRNNGTLVVQSLHGVFKVKDTTTLQQHLVDGRDMIIIRMPKDFPPFPQKLKFREPQREERICLVTTNFQTKSMSSMVSDTSCTFPSGDGIFWKHWIQTKDGQCGSPLVSTRDGFIVGIHSASNFTNTNNYFTSVPKNFMELLTNQEAQQWVSGWRLNADSVLWGGHKVQMVKPEEPFQPVKEATQL [F218Q] | 0.0644 | 0.0418 | – | – | 0.0554 | –
MGESLFKGPRDYNPISSSICHLTNESDGHTTSLYGIGFGPFIITNKHLFRRNNGTLVVQSLHGVFKVKDTTTLQQHLVDGRDMIIIRMPKDFPPFPQKLKFREPQREERICLVTTNFQTKSMSSMVSDTSCTFPSGDGIFWKHWIQTKDGQCGSPLVSTRDGFIVGIHSASNFTNTNNYFTSVPKNFMELLTNQEAQQWVSGWRLNADSVLWGGHKVFMVKPPEPFQPVKEATQL [E223P] | – | 0.0649 | 0.122 | – | – | –
MGESLFKGPRDYNPISSSICHLTNESDGHTTSLYGIGFGPFIITNKHLFRRNNGTLVVQSLHGVFKVKDTTTLQQHLVDGRDMIIIRMPKDFPPFPQKLKFREPQREERICLVTTNFQTKSMSSMVSDTSCTFPSGDGIFWKHWIQTKDGQCGSPLVSTRDGFIVGIHSASNFTNTNNYFTSVPKNFMELLTNQEAQQWVSGWRLNADSVLWGGHKVFMVKPEEPFHPVKEATQL [Q227H] | – | – | – | 0.0656 | – | –
MGESLFKGPRDYNPISSSICHLTNESDGHTTSLYGIGFGPFIITNKHLFRRNNGTLVVQSLHGVFKVKDTTTLQQHLVDGRDMIIIRMPKDFPPFPQKLKFREPQREERICLVTTNFQTKSMSSMVSDTSCTFPSGDGIFWKHWIQTKDGQCGSPLVSTRDGFIVGIHSASNFTNTNNYFTSVPKNFMELLTNQEAQQWVSGWRLNADSVLWGGHKVFMVKPEEPFQIVKEATQL [P228I] | 0.061 | 0.0538 | – | 0.0597 | – | –

Reference: the supplement of paper PMC12217912
